The record followed here is the supplement of paper PMC10498489.

Structures are written as SMILES. Among all 2,300 compounds or so, about 330 (14%) showed activity.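 Rule for the calls: active = median modified Z-score above 1.96; inactive = 1.96 or below.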 The list shows a part of the results, in another mix than the full data.

The subject of the assay is HepG2 Srxn1-GFP reporter cells (+30 nM CDDO-Me). In words: Srxn1-GFP intensity median modified Z-score relative to plate median; higher = stronger NRF2 / oxidative stress reporter activation, active = hit call of the paper. Conditions: 10 µM; exposure time: 24h. The gist of the method: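 The per-plate modified Z-score of GFP intensity, taken as a median across replicates, is what each value represents. Three replicate plates of HepG2 Srxn1-GFP BAC reporter cells were exposed for 24 h to an NRF2 activator at 30 nM combined with compound at 10 μM (≤0.1% DMSO). Cytoplasmic GFP per cell was read from confocal images, excluding any with under 100 cells, and scaling used 1.4826 × median absolute deviation.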
For the compound `C/C(=C(/CCOP(=O)(O)O)SC(=O)c1ccccc1)N(C=O)Cc1c[nH]c(C)nc1=N` [euspeclibcmpd1052], the “Srxn1-GFP intensity median modified Z-score” value was inactive: 1.09.
As to `O[C@@H]1[C@@H](O)[C@@H](O)OC[C@H]1O`, the “Srxn1-GFP intensity median modified Z-score” value is inactive: 0.871.
Regarding `Cc1cc(C)cc(-c2nnc(SCc3csc(Nc4ccccc4)n3)o2)c1`, the “Srxn1-GFP intensity median modified Z-score” value is inactive: 0.289.
For `CC1(C)CC2C1CCC1(C)OC1CCC2(C)O` (stereo not given) [euspeclibcmpd1488], the “Srxn1-GFP intensity median modified Z-score” value is inactive: -0.0812.
Then `CC1=CCc2c(cc3oc(C)cc(=O)c3c2O)OC1` [euspeclibcmpd1616], with inactive: 1.89; and `Cc1[nH]c(C)c(Cl)c(=O)c1Cl` [euspeclibcmpd744], with active: 6.67; and `CN(Cc1cc(Br)cc(Br)c1N)C1CCCCC1` [euspeclibcmpd529], with inactive: -0.0923.
On to `COC(=O)[C@@]1(C)CCC[C@]2(C)c3ccc(O)c(C(C)C)c3CCC12` (stereo not given in full) [euspeclibcmpd1676], for which the “Srxn1-GFP intensity median modified Z-score” value is inactive: 1.46.
Then `OC(CCN1CCCC1)(c1ccccc1)C1CCCCC1` (stereo not given) [euspeclibcmpd250], with inactive: 1.63; and `CC(C)NCC(O)COc1cccc2[nH]ccc12` (stereo not given) [euspeclibcmpd237], with inactive: -0.415.
With `CC1=C(/C=C/C(C)=C/C=C/C(C)=C/C=C/C=C(C)/C=C/C=C(C)/C=C/C(=O)[C@]2(C)C[C@@H](O)CC2(C)C)C(C)(C)C[C@H](O)C1` [euspeclibcmpd1726], the “Srxn1-GFP intensity median modified Z-score” value was inactive: -0.348.
Then `CC(C)(C)CC(C)(C)c1ccc(OCCOCC[N+](C)(C)Cc2ccccc2)cc1` [euspeclibcmpd33], with active: 9.81; and `Cn1nnc2c(C(N)=O)ncn2c1=O` [euspeclibcmpd925], with inactive: 0.0618; and `COc1cccc(O)c1O` [euspeclibcmpd1624], with active: 10.7.
In the case of `CCCCOc1ccc(C(=O)CCN2CCCCC2)cc1` [euspeclibcmpd107], the “Srxn1-GFP intensity median modified Z-score” value is active: 3.53.
In the case of `C[C@H]1[C@H](OC(=O)CCC(=O)O)O[C@@H]2O[C@]3(C)CC[C@H]4[C@H](C)CC[C@@H]1[C@@]24OO3` [euspeclibcmpd985], the “Srxn1-GFP intensity median modified Z-score” value was active: 11.
For `CN(C)CCOC(=O)C(c1ccccc1)C1(O)CCCC1` (stereo not given) [euspeclibcmpd78], the “Srxn1-GFP intensity median modified Z-score” value was inactive: -0.348.
Next, `O=C(/C=C/c1ccccc1)c1ccc(O)cc1` [euspeclibcmpd1718]: active: 12.6; `O=C(/C=C/c1ccccc1)c1ccc(O)cc1`: active: 4.36.
With `O=C(O)c1ccc2c(c1)OCO2` [euspeclibcmpd1566], the “Srxn1-GFP intensity median modified Z-score” value was inactive: -0.239.
Regarding `Nc1ccc(C(=O)O)c(O)c1` [euspeclibcmpd2218], the “Srxn1-GFP intensity median modified Z-score” value is inactive: 0.181.
Consider `Nc1ccc(C(=O)O)c(O)c1`, for which the “Srxn1-GFP intensity median modified Z-score” value was inactive: 0.389.
Turning to `Nc1ccc(C(=O)O)c(O)c1` [euspeclibcmpd1137], the “Srxn1-GFP intensity median modified Z-score” value was inactive: 0.238.
Next, `CC(=O)Nc1ccc(S(=O)(=O)c2ccc(NC(C)=O)cc2)cc1` [euspeclibcmpd761]: inactive: -0.252; `O=C(O)c1ccccc1Nc1cccc(C(F)(F)F)c1` [euspeclibcmpd370]: active: 2.94; `CC(O)(CC(=O)O)CC(=O)O` [euspeclibcmpd934]: inactive: -0.263.
Then `CCOC(=O)CC(=O)N1CCSC1COc1ccccc1OC` (stereo not given) [euspeclibcmpd1082], with inactive: 1.48; and `CC(=O)Oc1ccc(C(c2ccc(OC(C)=O)cc2)c2ccccn2)cc1` [euspeclibcmpd38], with inactive: 0.0227; and `COc1ccc(C2Sc3ccccc3N(CCN(C)C)C(=O)C2OC(C)=O)cc1` (stereo not given) [euspeclibcmpd952], with inactive: 0.263.
Then `CCC(C)(C)C(=O)O[C@H]1C[C@@H](C)C=C2C=C[C@H](C)[C@H](CC[C@@H]3C[C@@H](O)CC(=O)O3)[C@H]21` [euspeclibcmpd671], with inactive: -0.935; and `CCCCS(=N)(=O)CCC(N)C(=O)O` (stereo not given) [euspeclibcmpd1774], with inactive: -0.55.
Take `O=S(=O)(c1cccc2cnccc12)N1CCCNCC1` [euspeclibcmpd1094]: the “Srxn1-GFP intensity median modified Z-score” value is inactive: -1.28.
As to `NC1CCN(c2c(F)cc3c(=O)c(C(=O)O)cn(C4CC4)c3c2Cl)C1` (stereo not given) [euspeclibcmpd507], the “Srxn1-GFP intensity median modified Z-score” value was inactive: -0.176.
With `CCC1(C)CC(=O)NC1=O` (stereo not given) [euspeclibcmpd442], the “Srxn1-GFP intensity median modified Z-score” value was inactive: -0.0481.
Turning to `COc1ccc(C(C)=O)c(OC)c1` [euspeclibcmpd1377], the “Srxn1-GFP intensity median modified Z-score” value was inactive: -0.453.
Next, `CCCNC(C)(C)COC(=O)c1ccccc1` [euspeclibcmpd548]: inactive: -0.301; `C=C[C@@]1(C)CC(=O)[C@@]2(O)[C@](C)(O1)[C@@H](O)[C@@H](O)C1C(C)(C)CC[C@H](O)[C@@]12C` (stereo not given in full) [euspeclibcmpd1678]: inactive: -0.485; `COC(=O)/C=C/C(=O)OC` [euspeclibcmpd923]: active: 6.34.
As to `C[N+](C)(C)CCOC(N)=O` [euspeclibcmpd43], the “Srxn1-GFP intensity median modified Z-score” value was inactive: -0.767.
In the case of `Cc1nc2sccn2c(=O)c1CCN1CCC(=C(c2ccc(F)cc2)c2ccc(F)cc2)CC1` [euspeclibcmpd532], the “Srxn1-GFP intensity median modified Z-score” value is active: 7.86.
Next, `Nc1ccc(S(=O)(=O)N=c2ccc(Cl)n[nH]2)cc1` [euspeclibcmpd398]: inactive: -0.684.
Next, `CCC(C)C(NC)C(=O)O` (stereo not given) [euspeclibcmpd1796]: inactive: -0.00697.
Take `O=C(O)CCC(=O)c1ccc(-c2ccccc2)cc1` [euspeclibcmpd367]: the “Srxn1-GFP intensity median modified Z-score” value was inactive: 0.00216.
Consider `CN(C)CCc1c[nH]c2ccc(CS(=O)(=O)N3CCCC3)cc12` [euspeclibcmpd715], for which the “Srxn1-GFP intensity median modified Z-score” value was inactive: -0.352.
For `CC(C)NNC(=O)c1ccncc1` [euspeclibcmpd1037], the “Srxn1-GFP intensity median modified Z-score” value is inactive: 0.415.
In the case of `CCCNCCCCCC[N+](C)(C)C` [euspeclibcmpd616], the “Srxn1-GFP intensity median modified Z-score” value is inactive: 1.43.
Take `CCOC(N)=O` [euspeclibcmpd570]: the “Srxn1-GFP intensity median modified Z-score” value was inactive: -0.191.
Then `O=C1c2cccc(O)c2C(=O)c2c(O)cccc21` [euspeclibcmpd3], with active: 19.4; and `NC(=O)c1cc[n+](C=C2CSC3C(NC(=O)Cc4cccs4)C(=O)N3C2C(=O)O)cc1` (stereo not given) [euspeclibcmpd1236], with inactive: -0.488; and `CC(=O)OC1CCC23C(=O)OC45CCC(c6coc(O)c6)C4(C)CCC2C5CCC3(O)C1` (stereo not given) [euspeclibcmpd1387], with inactive: -1.25.
